This assay relates to CEM cell line. The assay can be described thus: Proliferation assay, cannabinoids alone and paired (MTT, 48 h). Particulars: Homo sapiens, CCRF-CEM, read-out: IC50 (concentration required to reduce the cell number by 50%).

On to `CCCCCc1cc(O)c2c(c1)OC(C)(C)[C@@H]1CCC(C)=C[C@@H]21` [THC, Tetrahydrocannabinol], for which the IC50 stood at 13 ± 0.49 µM.

These data come from patent US12161607B2, “Combination of cannabinoids in the treatment of leukemia” (Jazz Pharmaceuticals Research UK Limited, priority 2017, dated 2024).
